# Data taken from the supplement of paper PMC8728848.
# Some of the results follow.
# Key:
# Assay in all cases: glycan array binding signal (z-score within array); higher = stronger binding
# Settings in all cases: glycan notation: IUPAC condensed, linker removed
# [1] = molecular target: Neu5Ac(a2-6)Gal(b1-4)GlcNAc(b1-2)[Neu5Ac(a2-6)Gal(b1-4)GlcNAc(b1-4)]Man(a1-3)[GlcNAc(b1-4)][Neu5Ac(a2-6)Gal(b1-4)GlcNAc(b1-4)Man(a1-6)]Man(b1-4)GlcNAc(b1-4)GlcNAc
# Outline: (§1)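 Glycan array data came from 3228 arrays in the Consortium for Functional Glycomics database, and only arrays with an available protein sequence were kept. Glycan names were put into IUPAC-condensed notation, and columns mapping to the same glycan were averaged. The binding signal is a within-array Z-score, averaged across arrays of one protein sequence run at different concentrations or buffers and across linkers. A negative Z-score can be read as non-binding.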
# [2] = molecular target: Neu5Ac(a2-6)Gal(b1-4)GlcNAc(b1-2)[Neu5Ac(a2-6)Gal(b1-4)GlcNAc(b1-6)]Man(a1-6)[Neu5Ac(a2-6)Gal(b1-4)GlcNAc(b1-2)Man(a1-3)][GlcNAc(b1-4)]Man(b1-4)GlcNAc(b1-4)GlcNAc
# Outline: as §1
# [3] = molecular target: Neu5Ac(a2-6)Gal(b1-4)GlcNAc(b1-3)Gal(b1-3)GlcNAc
# Outline: as §1
# [4] = molecular target: Neu5Ac(a2-6)Gal(b1-4)GlcNAc(b1-3)Gal(b1-4)GlcNAc
# Outline: as §1
# [5] = molecular target: Neu5Ac(a2-6)Gal(b1-4)GlcNAc(b1-3)Gal(b1-4)GlcNAc(b1-2)Man(a1-3)[Neu5Ac(a2-6)Gal(b1-4)GlcNAc(b1-3)Gal(b1-4)GlcNAc(b1-2)Man(a1-6)]GalNAc
# Outline: as §1
# [6] = molecular target: Neu5Ac(a2-6)Gal(b1-4)GlcNAc(b1-3)Gal(b1-4)GlcNAc(b1-3)Gal(b1-4)GlcNAc
# Outline: as §1
# [7] = molecular target: Neu5Ac(a2-6)Gal(b1-4)GlcNAc(b1-3)Gal(b1-4)GlcNAc(b1-3)Gal(b1-4)GlcNAc(b1-2)Man(a1-3)[Neu5Ac(a2-6)Gal(b1-4)GlcNAc(b1-3)Gal(b1-4)GlcNAc(b1-3)Gal(b1-4)GlcNAc(b1-2)Man(a1-6)]GalNAc
# Outline: as §1
# [8] = molecular target: Neu5Ac(a2-6)Gal(b1-4)GlcNAc(b1-3)Gal(b1-4)GlcNAc(b1-3)GalNAc
# Outline: as §1
# [9] = molecular target: Neu5Ac(a2-6)Gal(b1-4)GlcNAc(b1-3)Gal(b1-4)GlcNAc(b1-3)[Neu5Ac(a2-6)Gal(b1-4)GlcNAc(b1-3)Gal(b1-4)GlcNAc(b1-6)]GalNAc
# Outline: as §1
# [10] = molecular target: Neu5Ac(a2-6)Gal(b1-4)GlcNAc(b1-3)Gal(b1-4)GlcNAc(b1-6)[Gal(b1-3)]GalNAc
# Outline: as §1
# [11] = molecular target: Neu5Ac(a2-6)Gal(b1-4)GlcNAc(b1-3)Gal(b1-4)[Fuc(a1-3)]GlcNAc(b1-3)Gal(b1-4)[Fuc(a1-3)]GlcNAc
# Outline: as §1
# [12] = molecular target: Neu5Ac(a2-6)Gal(b1-4)GlcNAc(b1-3)GalNAc
# Outline: as §1
# [13] = molecular target: Neu5Ac(a2-6)Gal(b1-4)GlcNAc(b1-3)[Neu5Ac(a2-6)Gal(b1-4)GlcNAc(b1-6)]GalNAc
# Outline: as §1
# [14] = molecular target: Neu5Ac(a2-6)Gal(b1-4)GlcNAc(b1-6)GalNAc
# Outline: as §1
# [15] = molecular target: Neu5Ac(a2-6)Gal(b1-4)GlcNAc(b1-6)[Gal(b1-3)GlcNAc(b1-3)]Gal(b1-4)Glc
# Outline: as §1
# [16] = molecular target: Neu5Ac(a2-6)Gal(b1-4)GlcNAc(b1-6)[Gal(b1-3)]GalNAc
# Outline: as §1
# [17] = molecular target: Neu5Ac(a2-6)Gal(b1-4)GlcNAc6S
# Outline: as §1
# Neu5Ac(a2-6)GalNAc = molecular target: Neu5Ac(a2-6)GalNAc
# Outline: as §1
# [18] = molecular target: Neu5Ac(a2-6)GalNAc(b1-4)GlcNAc
# Outline: as §1
# [19] = molecular target: Neu5Ac(a2-6)GalNAc(b1-4)GlcNAc6S
# Outline: as §1
# [20] = molecular target: Neu5Ac(a2-6)GlcNAc(b1-4)GlcNAc
# Outline: as §1
# [21] = molecular target: Neu5Ac(a2-6)GlcNAc(b1-4)GlcNAc(b1-4)GlcNAc
# Outline: as §1
# Neu5Ac(a2-8)Neu5Ac = molecular target: Neu5Ac(a2-8)Neu5Ac
# Outline: as §1
# [22] = molecular target: Neu5Ac(a2-8)Neu5Ac(a2-3)Gal(b1-3)GalNAc(b1-4)[Neu5Ac(a2-3)]Gal(b1-4)Glc
# Outline: as §1
# [23] = molecular target: Neu5Ac(a2-8)Neu5Ac(a2-3)Gal(b1-3)GalNAc(b1-4)[Neu5Ac(a2-8)Neu5Ac(a2-3)]Gal(b1-4)Glc
# Outline: as §1
# [24] = molecular target: Neu5Ac(a2-8)Neu5Ac(a2-3)Gal(b1-4)Glc
# Outline: as §1
# [25] = molecular target: Neu5Ac(a2-8)Neu5Ac(a2-3)Gal(b1-4)GlcNAc
# Outline: as §1
# [26] = molecular target: Neu5Ac(a2-8)Neu5Ac(a2-3)[Gal(b1-3)GalNAc(b1-4)]Gal(b1-4)Glc
# Outline: as §1
# [27] = molecular target: Neu5Ac(a2-8)Neu5Ac(a2-3)[GalNAc(b1-4)]Gal(b1-4)Glc
# Outline: as §1
# [28] = molecular target: Neu5Ac(a2-8)Neu5Ac(a2-8)Neu5Ac
# Outline: as §1
# [29] = molecular target: Neu5Ac(a2-8)Neu5Ac(a2-8)Neu5Ac(a2-3)Gal(b1-4)Glc
# Outline: as §1
# [30] = molecular target: Neu5Ac(a2-8)Neu5Ac(a2-8)Neu5Ac(a2-3)[Gal(b1-3)GalNAc(b1-4)]Gal(b1-4)Glc
# Outline: as §1
# [31] = molecular target: Neu5Ac(a2-8)Neu5Ac(a2-8)Neu5Ac(a2-3)[GalNAc(b1-4)]Gal(b1-4)Glc
# Outline: as §1
# [32] = molecular target: Neu5Ac(a2-8)Neu5Ac(a2-8)Neu5Ac(a2-8)Neu5Ac(a2-3)[GalNAc(b1-4)]Gal(b1-4)Glc
# Outline: as §1
# [33] = molecular target: Neu5Ac(a2-8)Neu5Gc(a2-3)Gal(b1-4)GlcNAc
# Outline: as §1
# Neu5Ac(b1-6)GalNAc = molecular target: Neu5Ac(b1-6)GalNAc
# Outline: as §1
# [34] = molecular target: Neu5Ac(b2-6)Gal(b1-4)GlcNAc
# Outline: as §1
# Neu5Ac(b2-6)GalNAc = molecular target: Neu5Ac(b2-6)GalNAc
# Outline: as §1
# [35] = molecular target: Neu5Ac9Ac(a2-3)Gal(b1-3)GlcNAc
# Outline: as §1
# [36] = molecular target: Neu5Ac9Ac(a2-3)Gal(b1-4)GlcNAc
# Outline: as §1
# [37] = molecular target: Neu5Ac9Ac(a2-6)Gal(b1-4)GlcNAc
# Outline: as §1
# [38] = molecular target: Neu5Gc(a2-3)Gal(b1-3)GlcNAc
# Outline: as §1
# [39] = molecular target: Neu5Gc(a2-3)Gal(b1-3)[Fuc(a1-4)]GlcNAc
# Outline: as §1
# Neu5Gc(a2-3)Gal(b1-4)Glc = molecular target: Neu5Gc(a2-3)Gal(b1-4)Glc
# Outline: as §1
# [40] = molecular target: Neu5Gc(a2-3)Gal(b1-4)GlcNAc
# Outline: as §1
# [41] = molecular target: Neu5Gc(a2-3)Gal(b1-4)GlcNAc(b1-3)Gal(b1-4)GlcNAc(b1-2)Man(a1-3)[Neu5Gc(a2-3)Gal(b1-4)GlcNAc(b1-3)Gal(b1-4)GlcNAc(b1-2)Man(a1-6)]Man(b1-4)GlcNAc(b1-4)GlcNAc
# Outline: as §1
# [42] = molecular target: Neu5Gc(a2-3)Gal(b1-4)[Fuc(a1-3)]GlcNAc
# Outline: as §1
# [43] = molecular target: Neu5Gc(a2-6)Gal(b1-4)GlcNAc
# Outline: as §1
# Neu5Gc(a2-6)GalNAc = molecular target: Neu5Gc(a2-6)GalNAc
# Outline: as §1
# [44] = molecular target: Neu5Gc(a2-8)Neu5Ac(a2-3)Gal(b1-4)GlcNAc
# Outline: as §1
# [45] = molecular target: Neu5Gc(a2-8)Neu5Gc(a2-3)Gal(b1-4)GlcNAc
# Outline: as §1
# [46] = molecular target: Neu5Gc(a2-8)Neu5Gc(a2-3)Gal(b1-4)GlcNAc(b1-3)Gal(b1-4)GlcNAc
# Outline: as §1
# [47] = molecular target: Neu5Gc(a2-8)Neu5Gc(a2-6)Gal(b1-4)GlcNAc
# Outline: as §1
# [48] = molecular target: Neu5Gc(b2-6)Gal(b1-4)GlcNAc
# Outline: as §1
binder,measurement,setting,value
"MAL-II (Maackia amurensis), P93248 (protein) ATSNSKPTQVLLATFLTFFFLLLNNVNSSDELSFTINNFVPNEADLLFQGEASVSSTGVLQLTRVENGQPQQYSVGRALYAAPVRIWDNTTGSVASFSTSFTFVVKAPNPTITSDGLAFFLAPPDSQIPSGRVSKYLGLFNNSNSDSSNQIVAVEFDTYFGHSYDPWDPNYRHIGIDVNGIESIKTVQWDWINGGVAFATITYLAPNKTLIASLVYPSNQTSFIVAASVDLKEILPEWVRVGFSAATGYPTQVETHDVLSWSFTSTLEANSDAATENNVHIARYTA",glycan array binding signal (z-score),[1],-0.028
same,glycan array binding signal (z-score),[2],-0.057
same,glycan array binding signal (z-score),[3],-0.178
same,glycan array binding signal (z-score),[4],-0.191
same,glycan array binding signal (z-score),[5],0.3
same,glycan array binding signal (z-score),[6],-0.19
same,glycan array binding signal (z-score),[7],0.565
same,glycan array binding signal (z-score),[8],-0.144
same,glycan array binding signal (z-score),[9],0.767
same,glycan array binding signal (z-score),[10],-0.182
same,glycan array binding signal (z-score),[11],-0.108
same,glycan array binding signal (z-score),[12],-0.175
same,glycan array binding signal (z-score),[13],-0.211
same,glycan array binding signal (z-score),[14],-0.077
same,glycan array binding signal (z-score),[15],-0.207
same,glycan array binding signal (z-score),[16],-0.167
same,glycan array binding signal (z-score),[17],-0.231
same,glycan array binding signal (z-score),Neu5Ac(a2-6)GalNAc,-0.215
same,glycan array binding signal (z-score),[18],-0.218
same,glycan array binding signal (z-score),[19],-0.268
same,glycan array binding signal (z-score),[20],-0.351
same,glycan array binding signal (z-score),[21],-0.229
same,glycan array binding signal (z-score),Neu5Ac(a2-8)Neu5Ac,-0.192
same,glycan array binding signal (z-score),[22],-0.263
same,glycan array binding signal (z-score),[23],-0.237
same,glycan array binding signal (z-score),[24],-0.167
same,glycan array binding signal (z-score),[25],-0.255
same,glycan array binding signal (z-score),[26],-0.261
same,glycan array binding signal (z-score),[27],-0.19
same,glycan array binding signal (z-score),[28],-0.238
same,glycan array binding signal (z-score),[29],-0.2
same,glycan array binding signal (z-score),[30],-0.049
same,glycan array binding signal (z-score),[31],-0.209
same,glycan array binding signal (z-score),[32],-0.171
same,glycan array binding signal (z-score),[33],-0.139
same,glycan array binding signal (z-score),Neu5Ac(b1-6)GalNAc,-0.261
same,glycan array binding signal (z-score),[34],-0.231
same,glycan array binding signal (z-score),Neu5Ac(b2-6)GalNAc,-0.193
same,glycan array binding signal (z-score),[35],-0.229
same,glycan array binding signal (z-score),[36],-0.164
same,glycan array binding signal (z-score),[37],-0.15
same,glycan array binding signal (z-score),[38],-0.186
same,glycan array binding signal (z-score),[39],-0.226
same,glycan array binding signal (z-score),Neu5Gc(a2-3)Gal(b1-4)Glc,-0.13
same,glycan array binding signal (z-score),[40],-0.167
same,glycan array binding signal (z-score),[41],-0.186
same,glycan array binding signal (z-score),[42],-0.207
same,glycan array binding signal (z-score),[43],-0.185
same,glycan array binding signal (z-score),Neu5Gc(a2-6)GalNAc,-0.202
same,glycan array binding signal (z-score),[44],-0.289
same,glycan array binding signal (z-score),[45],-0.304
same,glycan array binding signal (z-score),[46],-0.246
same,glycan array binding signal (z-score),[47],-0.198
same,glycan array binding signal (z-score),[48],-0.117
